Laboratory results from the CheMixHub viscosity set.
This continues a long series; more values of the same kind are listed elsewhere.

Experiment: xn = mol fraction of the nth substance listed
Conditions: 101 kPa

CC(=O)N(C)C + O
viscosity [mPa·s]
Conditions	298.15 K	303.15 K	308.15 K	313.15 K	318.15 K
x1 = 0.0203	–	–	0.9614	0.8638	0.7808
x1 = 0.0212	1.25	–	–	–	–
x1 = 0.0502	–	–	1.27	1.127	1.007
x1 = 0.0703	–	–	1.499	1.32	1.17
x1 = 0.0769	2.025	–	–	–	–
x1 = 0.1	–	–	1.826	1.593	1.402
x1 = 0.1203	–	–	2.044	1.774	1.553
x1 = 0.1497	–	–	2.32	2	1.741
x1 = 0.163	3.213	–	–	–	–
x1 = 0.1698	–	–	2.477	2.127	1.845
x1 = 0.2003	–	–	2.672	2.287	1.977
x1 = 0.22	–	–	2.758	2.358	2.035
x1 = 0.2272	3.8	–	–	–	–
x1 = 0.2497	–	–	2.836	2.422	2.09
x1 = 0.2701	–	–	2.851	2.437	2.103
x1 = 0.3	–	–	2.829	2.422	2.094
x1 = 0.3131	3.867	–	–	–	–
x1 = 0.32	–	–	2.789	2.392	2.072
x1 = 0.3501	–	–	2.701	2.325	2.019
x1 = 0.4002	–	–	2.503	2.17	1.897
x1 = 0.4299	3.211	–	–	–	–
x1 = 0.4503	–	–	2.278	1.992	1.754
x1 = 0.5003	–	–	2.045	1.804	1.602
x1 = 0.5999	–	–	1.651	1.481	1.335
x1 = 0.6373	2.082	–	–	–	–
x1 = 0.7	–	–	1.345	1.224	1.118
x1 = 0.7881	1.58	–	–	–	–
x1 = 0.8002	–	–	1.116	1.028	0.9498
x1 = 0.8499	–	–	1.029	0.9522	0.8841
x1 = 0.8999	–	1.029	0.9541	0.8867	0.8267
